Experimental data taken from the supplement of paper PMC11417369.
This is one part of the list.

Tested on: PfAP2-HC AP2 domain (GST-tagged)
Assay: gcPBM binding intensity (ln(normalized median fluorescence intensity)); higher = stronger DNA binding
In short: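 GST-tagged P. falciparum DNA-binding domains, expressed in E. coli (about 25 μg on average), were applied for 1 h to an Agilent 4 × 180k array of primer-extended double-stranded 36-bp intergenic genomic probes plus negative controls. The binding buffer was 1× PBS with 1% milk, 0.2 mg/ml BSA, 0.5% salmon testes DNA and 0.03% Triton X-100. Bound protein was detected with Alexa488 anti-GST antibody and scanned at 488 nm. Binding intensity is the highest Masliner-normalised natural-log median intensity across replicate spots of either probe orientation.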

Sequence	gcPBM binding intensity (ln)
ATATGTTATATAAATATATATATATATATATATATA [TGCATGCA_negctrl_site594]	9.42
TTAATATAATAGAAGTGTACACACATATTTATGTGT [XGTACX_site6672]	10.1
TAAAGAAAAAGAGAATGTACATGAGAAAAGTATACT [XGTACX_site7472]	9.79
AGAAAAAAAAAAAAATGTACAGACTTTTTCTTATAA [XGTACX_site6481]	9.37
AAAAAAGATAATTATGCACACACACCCACCCACCCA [CACACA_site8825]	10.5
TTTTTATAAATACACATAAATATATATATATATATA [TGCATGCA_negctrl_site393]	9.44
ACACAAAAAAATATATATATATATATATATATGTTA [CACACA_negctrl_site55]	9.72
AAAAAAAAAAAAAAATGTACATTTTGAAAGGATATA [XGTACX_site8217]	9.63
ATGCATTATTAGAATACACACCATACGCATATTTAT [CACACA_site4319]	9.86
TTTTTTTTTCTTTCTTTCTTTTGTAAAAACCTCAAA [CACACA_negctrl_site723]	9.37
ATATGTATATATAAAAGTACGCGTAAAAAAAAAAAA [XGTACX_site5377]	10.1
TATAAACCAATGAACACACAAACATATATATATATA [CACACA_site3168]	10.4
TCTTTTTATATTTATTGTACATAAAAAATAAAACAT [XGTACX_site4073]	9.47
TAAATATATAAATACACACACATACACAAAAAAAAA [CACACA_site5890]	10.9
TATACACCCTAAAATACACACACACCCACCCATATA [CACACA_site9380]	10.3
ACAACATTTCTCAAATGTACATAATATAATTTATAT [XGTACX_site3224]	9.64
TATTAATTCTTAAATTTTTTTTTTTAATTCCTAGGA [CACACA_negctrl_site879]	9.03
GCCTTCCTTCTAAATGCACACGGAAAGTATAAATGT [CACACA_site8797]	9.83
GAATGAATCAATGTTTGTACTCAACAAATTATAAGG [XGTACX_site5122]	9.58

Sequence	gcPBM binding intensity (ln)
CAATAATTTTTTAAATGTACTTTATTATAATTTAAT [XGTACX_site135]	9.48
TATATATAATACAGTATGCACTATTTTTATTAAAAA	9.41
TTTTCTTACATCTTATAAAAAAAAATATATATTATA [GTGCAC_negctrl_site118]	9
GTCTAACAACCAAACGCACACACACTAATAAAAAAA [CACACA_site8026]	10.3
TTATATACATAAAAATGTACTTTTTATAAAATATAT [XGTACX_site8281]	9.51
AAGTTAGTATTCTGCTGTACTTCTATATATAAGTGT [XGTACX_site7678]	9.61
ATATATCAAAAATGATGACATAAATATATTAATTTA [TGCATGCA_negctrl_site259]	9.62
ATAAAATAATCTTATGCACACCAAAAATTTATATAA [CACACA_site8332]	9.69
TTTTTGTAAAATAAACGTACAAAACAATTGTTCATT [XGTACX_site6537]	9.45
TATCTGTATGTATGTACACACAAAAAATGGAATATA [CACACA_site5947]	9.92
TATTTTAAAACAAAAATATAATTTCATAAAAATATA [CACACA_negctrl_site394]	9.23
TAATATATATATTTATGTACATATAAATTTTCTCCT [XGTACX_site4496]	9.57
TTTTATTCCGTTTCAAAATAAGAAAAAAAAAAAAAT [CACACA_negctrl_site1199]	9.1
TACTTCTCATTTGTTGTTGTATTTTAGGCATACCCT [XGTACX_negctrl_site385]	9.66
TTTCACACTATTTCATGTACACATAAAATTATATAT [XGTACX_site8692]	9.71
TAAATATAATAAAAGTGTACTTACACTTACATATAA [XGTACX_site1206]	9.76
AACAGATAAAAGGGTACACACATATATACATGTACA [CACACA_site225]	10.1
ATATAATAAGGTTAAGCACACATATTACATATATAA [CACACA_site9110]	9.88
TTGTATATATTTCCTTGTACGTAATAATTCTTATTG [XGTACX_site3938]	9.74

Sequence	gcPBM binding intensity (ln)
AAGGATAATAGGTACACATGCAATATTCATATATAC [TGCATGCA_site523]	9.86
CTTATATATACGTGCACACATATATATAAGATATAT [CACACA_site1752]	9.69
AAAAATATAAATGACACACACTTAAAAACAAAGAAA [CACACA_site4540]	10.2
ATTTAAAAAAAAAAAAATAAATAACTTGAAAAACAA [GTGCAC_negctrl_site318]	9.44
TGTTTTTCATAGTGCACACATAACCAAAAATAGTAT [CACACA_site3150]	9.67
ACGTATATTTTTACATGTACATATGTAAAAAATTTT [XGTACX_site4587]	9.57
TTATGATAATTTTGCACACACTTAGGAAAAATTATG [CACACA_site4949]	9.79
AAATAATATATATACACACACACATATATATATACA [CACACA_site554]	10.6
AAATACTGTACAAAGGTGCATAAAAAGTGGGGCATA	10.2
TCAAAAGAAATAAAAACATGCATAAAAGTAAAAATA [TGCATGCA_site832]	9.63
AATAATGAAAAATCAAATAACCTAAATTACAACTGT [XGTACX_negctrl_site65]	9.69
TTTTATTTATCATACACACACAGAAAAAAAAAAAAA [CACACA_site158]	9.9
GAATGTTTATTATATGCATGTTATATATATGAATAT [TGCATGCA_site4]	9.65
CCTTTCCTTTTATAAGTGCATATAACAAATGTATAC [GTGCAC_site9872]	9.64
ATTAAAGTTATAAATTCACACATGTAAATGTATTTA [CACACA_site5279]	9.58
ATATATTATATATGCGCACACACGAATTTTTTTTTT [CACACA_site2393]	10.1
GTTATATATGATGGAAGCACTTGGAAGAGGGAAATA [CACACA_negctrl_site1831]	9.64
GATAAATATTTAATATGTACATATATTATATATATA [XGTACX_site117]	9.66
